Data on 1 target can be found in the supplement of paper PMC12067093, “Discovery and optimisation of a covalent ligand for TRIM25 and its application to targeted protein ubiquitination” (Chemical Science, 2025).

Targets with the largest changes are over-represented here; the source holds about 21,000 in all.

Compound in this assay: Cc1cc(ccc1-c1ccccc1)C(=O)N1CCCN(CC1)C(=O)CCl [compound 10]
The experiment in a line: probe-labelled cysteine peptide fold change vs DMSO (competition) (log2 fold change); higher = less target engagement (more negative = stronger competition). The note with it: THP-1, incubation time: 4 h.
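Further: competitive profiling in live THP-1 cells: cysteine peptides tagged with an iodoacetamide desthiobiotin (IA-DTB) probe, intensity after compound treatment relative to DMSO-treated cells.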

Sequence of UniProt P50336 (P50336 whole entry, looked up): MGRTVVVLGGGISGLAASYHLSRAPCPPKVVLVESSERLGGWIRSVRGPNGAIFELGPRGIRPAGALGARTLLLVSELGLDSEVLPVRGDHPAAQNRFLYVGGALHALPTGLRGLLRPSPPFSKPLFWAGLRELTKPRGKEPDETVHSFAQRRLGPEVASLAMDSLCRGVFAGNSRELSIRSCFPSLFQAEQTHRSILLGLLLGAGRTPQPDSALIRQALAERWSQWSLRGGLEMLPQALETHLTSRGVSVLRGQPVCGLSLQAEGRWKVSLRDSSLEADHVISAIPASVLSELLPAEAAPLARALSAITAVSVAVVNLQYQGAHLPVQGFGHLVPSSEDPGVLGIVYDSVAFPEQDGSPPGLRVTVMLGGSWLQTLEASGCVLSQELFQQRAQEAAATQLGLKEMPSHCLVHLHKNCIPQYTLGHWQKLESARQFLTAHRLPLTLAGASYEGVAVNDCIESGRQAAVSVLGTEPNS

“PPOX_P50336_418_NCIPQYTLGHWQK (UniProt P50336)”: the “probe-labelled cysteine peptide fold change” value is -0.0557 (10 µM) and -0.474 (50 µM).
